The target of the data set is Escherichia coli (laboratory strain). As to the kind of experiment: barcode share on antibiotic plates over drug-free plates; higher = less susceptible. As for the experimental part:
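A pool of E. coli strains, each edited to carry one amino-acid change in an essential protein, was grown for 48 h on minimal glucose agar with or without antibiotic; strain barcodes were sequenced; mean of two replicates.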

Setting [1] is: antibiotic: carbenicillin, 2× MIC (3.1 µg/mL).
The mark [2] stands for this setting: antibiotic: gentamicin, 2× MIC (MIC 0.45 µg/mL).

Positions count from the first letter of the chain named. In names and notes the source's numbering stands. ± gives the standard deviation of the averaged measurements. Laboratory Escherichia coli strains with one amino-acid change in an essential protein, pooled on minimal glucose agar with carbenicillin or gentamicin at twice the control MIC (plus kanamycin and chloramphenicol for the plasmids), 48 h. Fold change of barcode share against drug-free plates; higher = less susceptible. Active = above 20 in both replicates (the paper's putatively resistant). '<' = one read or none on drug, '>' = one read or none on a drug-free plate. Shares are relative, so most strains fall below 1 when a few take over. Listed are strains with at least 15 reads on both drug-free plates, and hits; most hits rest on fewer reference reads. Replicate rank correlation about 0.5. Edits are read from barcodes.

B1: hisG I167A (protein)
chain: MTDNTRLRIAMQKSGRLSDDSRELLARCGIKINLHTQRLIAMAENMPIDILRVRDDDIPGLVMDGVVDLGIIGENVLEEELLNRRAQGEDPRYFTLRRLDFGGCRLSLATPVDEAWDGPLSLNGKRIATSYPHLLKRYLDQKGISFKSCLLNGSVEVAPRAGLADAACDLVSTGATLEANGLREVEVIYRSKACLIQRDGEMEESKQQLIDKLLTRIQGVIQARESKYIMMHAPTERLDEVIALLPGAERPTILPLAGDQQRVAMHMVSSETLFWETMEKLKALGASSILVLPIEKMME
On to B1, for which the “fold change of barcode share” value reads like this: under setting [1], 0.688 ± 0.025; under setting [2], 0.0191 ± 0.0041.

B2: hisG I167W (protein)
chain: B1 chain with A167W
Consider B2, for which the “fold change of barcode share” value came out at 2.79 ± 0.35 under setting [1] and 0.0577 ± 0.00065 under setting [2].

B3: hisF V79Q (protein)
chain: MLAKRIIPCLDVRDGQVVKGVQFRNHEIIGDIVPLAKRYAEEGADELVFYDITASSDGRVVDKSWVSRVAEVIDIPFCQAGGIKSLEDAAKILSFGADKISINSPALADPTLITRLADRFGVQCIVVGIDTWYDAETGKYHVNQYTGDESRTRVTQWETLDWVQEVQKRGAGEIVLNMMNQDGVRNGYDLEQLKKVREVCHVPLIASGGAGTMEHFLEAFRDADVDGALAASVFHKQIINIGELKAYLATQGVEIRIC
As for B3, the “fold change of barcode share” value under setting [1] was 27.9 [active].

B4: hisF V126A (protein)
chain: B3 chain with Q79V, V126A
In the case of B4, the “fold change of barcode share” value under setting [1] stood at 0.86 ± 0.18 and the “fold change of barcode share” value under setting [2] was under 0.016.

B5: hisF V79P (protein)
chain: B3 chain with Q79P
For the protein B5, the “fold change of barcode share” value under setting [1] was 73.4 [active].

B6: hisF V69P (protein)
chain: B3 chain with V69P, Q79V
For the protein B6, the “fold change of barcode share” value under setting [1] was 33.4 [active].

B7: hisF V69A (protein)
chain: B3 chain with V69A, Q79V
Consider B7, for which the “fold change of barcode share” value was determined as 0.512 ± 0.16 under setting [1] and 0.00797 ± 0.0069 under setting [2].

B8: hisF V126P (protein)
chain: B3 chain with Q79V, V126P
In the case of B8, under setting [1], the “fold change of barcode share” value was 153 [active].

The record behind these values is the supplement of paper PMC11876631.
